# Reference: US20230310557A1
# T1: CD20 on WSU-NHL cells (human) (UniProt P11836)
# T1 sequence: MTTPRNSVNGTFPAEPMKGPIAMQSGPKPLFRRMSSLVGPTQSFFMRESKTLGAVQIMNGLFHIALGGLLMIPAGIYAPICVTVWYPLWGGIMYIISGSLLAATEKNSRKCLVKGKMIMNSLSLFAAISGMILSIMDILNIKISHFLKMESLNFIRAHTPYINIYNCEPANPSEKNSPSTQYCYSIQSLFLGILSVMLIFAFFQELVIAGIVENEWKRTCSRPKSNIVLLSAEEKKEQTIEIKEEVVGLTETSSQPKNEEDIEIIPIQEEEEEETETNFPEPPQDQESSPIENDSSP
# B1: ATB 206 (Fc fusion)
# chain: QIVLSQSPAILSASPGEKVTMTCRASSSVSYIHWFQQKPGSSPKPWIYATSNLASGVPVRFSGSGSGTSYSLTISRVEAEDAATYYCQQWTSNPPTFGGGTKLEIKGGGGSGGGGSGGGGSQVQLQQPGAELVKPGASVKMSCKASGYTFTSYNMHWVKQTPGRGLEWIGAIYPGNGDTSYNQKFKGKATLTADKSSSTAYMQLSSLTSEDSAVYYCARSTYYGGDWYFNVWGAGTTVTVSAAS[human IgG1 Fc and a few adjoining residues not written out]GGSAVTWTCLNDQKNPKTNKYETKRLLYNQNKAESNSHHAPLSDGKTGSSYPHWFTNGYDGDGKLPKGRTPIKFGKSDCDRPPKHSKDGNGKTDHYLLEFPTFPDGHDYKFDSKKPKENPGPARVIYTYPNKVFCGIIAHTKENQGELKLCSH
# B2: ATB 676 (antibody)
# heavy: QVQLQQPGAELVKPGASVKMSCKASGYTFTSYNMHWVKQTPGRGLEWIGAIYPGNGDTSYNQKFKGKATLTADKSSSTAYMQLSSLTSEDSAVYYCARSTYYGGDWYFNVWGAGTTVTVSA[human IgG1 constant region not written out]GGSADTVICEPHQDTETGKIKKFKVDVGVAEDQAKKAGLTTGKSGDPHRYMNGDKINFGIHNCDKEGAILWEYPIYWVGKKAEWMKDEKTDRQPGGPTPIRVVYANNNGNIVYCGVMTHAVVKSNNQGEKFFLKCT
# light: QIVLSQSPAILSASPGEKVTMTCRASSSVSYIHWFQQKPGSSPKPWIYATSNLASGVPVRFSGSGSGTSYSLTISRVEAEDAATYYCQQWTSNPPTFGGGTKLEIKRTVAAPSVFIFPPSDEQLKSGTASVVCLLNNFYPREAKVQWKVDNALQSGNSQESVTEQDSKDSTYSLSSTLTLSKADYEKHKVYACEVTHQGLSSPVTKSFNRGEC
# B3: ATB 680 (antibody)
# heavy: QVQLQQPGAELVKPGASVKMSCKASGYTFTSYNMHWVKQTPGRGLEWIGAIYPGNGDTSYNQKFKGKATLTADKSSSTAYMQLSSLTSEDSAVYYCARSTYYGGDWYFNVWGAGTTVTVSA[human IgG1 constant region not written out]RRRKRSLDTSADTVICEPHQDTETGKIKKFKVDVGVAEDQAKKAGLTTGKSGDPHRYMNGDKINFGIHNCDKEGAILWEYPIYWVGKKAEWMKDEKTDRQPGGPTPIRVVYANNNGNIVYCGVMTHAVVKSNNQGEKFFLKCT
# light: B2 light
# B4: ATB 323 (antibody)
# heavy: EVQLVESGGGLVQPGGSLRLSCAASGYTFSSYWIEWVRQAPGKGLEWIGEILPGGGDTNYNEIFKGRATFSADTSKNTAYLQMNSLRAEDTAVYYCTRRVPIRLDYWGQGTLVTVSSGGGGSGGGGSGGGGSDIQLTQSPSSLSASVGDRVTITCKASQSVDYEGDSFLNWYQQKPGKAPKLLIYAASNLESGVPSRFSGSGSGTDFTLTISSLQPEDFATYYCQQSNEDPLTFGQGTKVEIKAS[human IgG1 Fc and a few adjoining residues not written out]GGSGGGGSRRKRAVTWTCLNDQKNPKTNKYETKRLLYNQNKAESNSHHAPLSDGKTGSSYPHWFTNGYDGDGKLPKGRTPIKFGKSDCDRPPKHSKDGNGKTDHYLLEFPTFPDGHDYKFDSKKPKENPGPARVIYTYPNKVFCGIIAHTKENQGELKLCSH
# light: B2 light
# B5: ATB 304 (Fc fusion)
# chain: EVQLVESGGGLVQPGGSLRLSCAASGYTFSSYWIEWVRQAPGKGLEWIGEILPGGGDTNYNEIFKGRATFSADTSKNTAYLQMNSLRAEDTAVYYCTRRVPIRLDYWGQGTLVTVSSGGGGSGGGGSGGGGSDIQLTQSPSSLSASVGDRVTITCKASQSVDYEGDSFLNWYQQKPGKAPKLLIYAASNLESGVPSRFSGSGSGTDFTLTISSLQPEDFATYYCQQSNEDPLTFGQGTKVEIKAS[human IgG1 Fc and a few adjoining residues not written out]GGSAETVQYYNSYSDASIASCAFVDSGKDKIDKTKLVTYTSRLAASPAYQKVVGVGLKTAAGSIVPYVRLDMDNTGKGIHFNATKLSDSSAKLAAVLKTTVSMTEAQRTQLYMEYIKGIENRSAQFIWDWWRTGKAPA
# B6: ATB 302 (Fc fusion)
# chain: EVQLVESGGGLVQPGGSLRLSCAASGYTFSSYWIEWVRQAPGKGLEWIGEILPGGGDTNYNEIFKGRATFSADTSKNTAYLQMNSLRAEDTAVYYCTRRVPIRLDYWGQGTLVTVSSGGGGSGGGGSGGGGSDIQLTQSPSSLSASVGDRVTITCKASQSVDYEGDSFLNWYQQKPGKAPKLLIYAASNLESGVPSRFSGSGSGTDFTLTISSLQPEDFATYYCQQSNEDPLTFGQGTKVEIKAS[human IgG1 Fc and a few adjoining residues not written out]GGSAPIVTCRPKLDGREKPFKVDVATAQAQARKAGLTTGKSGDPHRYFAGDHIRWGVNNCDKADAILWEYPIYWVGKNAEWAKDVKTSQQKGGPTPIRVVYANSRGAVQYCGVMTHSKVDKNNQGKEFFEKCD
# B7: ATB 301 (Fc fusion)
# chain: EVQLVESGGGLVQPGGSLRLSCAASGYTFSSYWIEWVRQAPGKGLEWIGEILPGGGDTNYNEIFKGRATFSADTSKNTAYLQMNSLRAEDTAVYYCTRRVPIRLDYWGQGTLVTVSSGGGGSGGGGSGGGGSDIQLTQSPSSLSASVGDRVTITCKASQSVDYEGDSFLNWYQQKPGKAPKLLIYAASNLESGVPSRFSGSGSGTDFTLTISSLQPEDFATYYCQQSNEDPLTFGQGTKVEIKAS[human IgG1 Fc and a few adjoining residues not written out]GGSADTVICEPHQDTETGKIKKFKVDVGVAEDQAKKAGLTTGKSGDPHRYMNGDKINFGIHNCDKEGAILWEYPIYWVGKKAEWMKDEKTDRQPGGPTPIRVVYANNNGNIVYCGVMTHAVVKSNNQGEKFFLKCT
# Tests used:
# [1] = molecular target: T1, CD20 on WSU-NHL cells (human); assay: cell-based or functional assay
# [2] = molecular target: CD79b on target cells (JEKO, OCY-LY3, BJAB, WSU-DLCL2) (human) (UniProt P40259); assay: cell-based or functional assay
# UniProt P40259, sequence (P40259 29-229): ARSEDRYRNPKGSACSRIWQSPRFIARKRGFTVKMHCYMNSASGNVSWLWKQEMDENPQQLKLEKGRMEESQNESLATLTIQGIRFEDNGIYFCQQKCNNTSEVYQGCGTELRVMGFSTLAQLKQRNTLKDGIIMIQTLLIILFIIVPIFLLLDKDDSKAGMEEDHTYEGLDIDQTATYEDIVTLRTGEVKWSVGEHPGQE
Binder,"cell viability IC50 (Cell Titer Glo, 72 h), WSU-NHL cells [1]","cell viability IC50 (Cell Titer Glo, 72 h), JEKO cells [2]"
B1,0.0367 nM,–
B2,0.0376 nM,–
B3,0.0191 nM,–
B4,–,0.16 nM
B5,–,0.281 nM
B6,–,1.11 nM
B7,–,0.103 nM
